Results: PubChem BioAssay AID1768 (National Center for Advancing Translational Sciences (NCATS), 2009)
About 620 (0.23%) of roughly 270,000 compounds were called active. Inconclusive means that the source gave no clear call. Such entries were picked first, then a sample of the others. Calls follow the shape of the dose curve; as a rule, active = well fitted inhibition curve with a large enough effect in the polarisation, with a control signal flat (not every such curve was filed as active); inconclusive = small, poorly fitted or top-dose-only effect, or effect the other way, or a change in a side signal; inactive = no such curve, though single readings can be large or run the other way; the % refers to the polarisation. Where the call is inconclusive, the potency comes from a doubtful curve fit. A note “side channel” means that the fit belongs to a control or component signal, not to the main read-out.

Target: Menin (Homo sapiens) (UniProt O00255)
Experiment: qHTS Assay for Inhibitors Targeting the Menin-MLL Interaction in MLL Related Leukemias: Competition With Texas Red Labeled MLL-derived Mutant Peptide
Settings: fluorescence polarization; series mostly up to 61.6 µM
Potency is read from the fitted curve at half-maximal effect; tags tell the direction and shape of the fitted curve or compound fluorescence and quenching.

Chain of UniProt O00255 (O00255 whole entry, looked up): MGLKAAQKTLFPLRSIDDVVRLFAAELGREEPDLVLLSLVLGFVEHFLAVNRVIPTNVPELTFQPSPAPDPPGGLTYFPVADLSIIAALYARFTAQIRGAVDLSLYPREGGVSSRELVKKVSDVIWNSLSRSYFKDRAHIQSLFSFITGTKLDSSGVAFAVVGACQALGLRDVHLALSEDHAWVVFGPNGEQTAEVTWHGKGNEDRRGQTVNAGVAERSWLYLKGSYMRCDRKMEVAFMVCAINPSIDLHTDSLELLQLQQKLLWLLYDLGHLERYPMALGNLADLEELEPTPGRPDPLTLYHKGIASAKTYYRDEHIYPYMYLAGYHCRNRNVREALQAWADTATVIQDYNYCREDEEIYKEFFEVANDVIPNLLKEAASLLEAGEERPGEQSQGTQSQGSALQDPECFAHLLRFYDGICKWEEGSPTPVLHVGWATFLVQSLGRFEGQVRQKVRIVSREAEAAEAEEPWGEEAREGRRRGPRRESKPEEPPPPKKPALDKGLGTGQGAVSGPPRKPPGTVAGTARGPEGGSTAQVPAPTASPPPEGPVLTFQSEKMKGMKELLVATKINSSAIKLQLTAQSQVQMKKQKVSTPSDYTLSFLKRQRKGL

SMILES | Potency
O=C(Nc1cccc(NC(=O)c2ccc(-c3ccc(Br)cc3)o2)c1)c1ccccc1 | inconclusive: 22.4 µM [inhibitor, partial curve]
Cc1ccn2c(Nc3ccccc3C)c(-c3cccnc3)nc2c1 | inconclusive: 39.8 µM [inhibitor, single point]
Oc1cc(NCc2cccnc2)ccc1-c1nc2ccccc2o1 | inconclusive: 15.8 µM [quencher, side channel, single point]
COc1ccc(Nc2nc3ccccc3nc2-n2nc(C)cc2C)cc1 | inconclusive: 20 µM [quencher, side channel, partial curve]
COc1cc(Nc2nc3ccccc3nc2NS(=O)(=O)c2ccc([N+](=O)[O-])cc2)cc(OC)c1OC | inconclusive: 22.4 µM [quencher, side channel, partial curve]
CN(C)CCCNC(=S)NCCNc1nc2cc3c(cc2cc1C#N)OCO3 | inactive
COc1cc2c(cc1OC)C1N(CC2)C(=O)CCC12C(=O)CCCC2=O (stereo unspecified) | inconclusive: 35.5 µM [inhibitor, partial curve]
CCc1cccc(NC(=O)CS(=O)Cc2nc(-c3ccc(C)cc3)oc2C)c1 (stereo unspecified) | inconclusive: 6.31 µM [fluorescent, side channel, single point]
CC1CCN(S(=O)C23CC4CC(CC(C4)C2)C3)CC1 (stereo unspecified) | inconclusive: 7.94 µM [fluorescent, side channel, partial curve]
O=S(=O)(Nc1ccc(-c2nc3cccnc3s2)cc1)c1ccc(Cl)s1 | inconclusive: 28.2 µM [quencher, side channel, single point]
COc1ccc(OCCN(C)CC(=O)Nc2ccccc2SC)cc1 | inconclusive: 12.6 µM [inhibitor, partial curve]
Cc1ccc(-c2[nH]c3ccccc3c2SCCNC(=O)c2cc3ccccc3oc2=O)cc1 | inconclusive: 0.708 µM [quencher, side channel, full curve, poor fit]
Cc1ccc(NC(=O)c2ccc3c(c2)OCCO3)cc1S(=O)(=O)Nc1cccc(Cl)c1 | inconclusive: 10 µM [quencher, side channel, partial curve]
O=S(=O)(c1ccc(Cl)cc1)N1CCc2ccccc21 | inconclusive: 25.1 µM [fluorescent, side channel, partial curve]
COc1ccc(C(C(=O)NC(C)(C)C)N(Cc2ccc(F)cc2)C(=O)CCC(=O)Nc2cc(C)on2)cc1 (stereo unspecified) | inactive
Cc1noc(/C=C/c2ccco2)c1S(=O)(=O)N1CCC(C(=O)N2CCc3ccccc3C2)CC1 | inconclusive: 39.8 µM [quencher, side channel, single point]
Cc1ccc(NC(=O)c2ccc(-n3cccn3)c([N+](=O)[O-])c2)cc1C | inconclusive: 17.8 µM [quencher, side channel, partial curve]
COc1ccc(-n2c(SCC(=O)Nc3ncc(Cl)cc3Cl)nc3ccccc32)cc1 | inconclusive: 8.91 µM [fluorescent, side channel, full curve, poor fit]

SMILES | Potency
CCN(CC)C(=O)c1sc2nc(-c3cccs3)cc(-c3ccc(Cl)cc3)c2c1N | inconclusive: 28.2 µM [inhibitor, partial curve]
O=C(N/N=C/c1ccc(O)c(O)c1)C1c2ccccc2Oc2ccccc21 | inconclusive: 12.6 µM [quencher, side channel, partial curve]
CN(C)c1nc(SCC(=O)Nc2ccc(Cl)c(Cl)c2)nc(N2CCOCC2)n1 | inconclusive: 39.8 µM [quencher, side channel, single point]
CCC(c1nnnn1Cc1ccco1)N(Cc1cc2cc(OC)ccc2[nH]c1=O)C1CCCCC1 (stereo unspecified) | inconclusive: 28.2 µM [quencher, side channel, single point]
Cc1ccc([N+](=O)[O-])c(OCCN2CCCCCC2)c1 | inconclusive: 39.8 µM [inhibitor, single point]
CCn1c(=O)cc(SCC(=O)N2CCN(c3ccccc3OC)CC2)c2ccccc21 | inconclusive: 22.4 µM [fluorescent, side channel, partial curve]
C=CCn1c(SCC(=O)Nc2ccccc2F)nc2ccccc2c1=O | inconclusive: 39.8 µM [fluorescent, side channel, single point]
COc1ccc(-c2csc(Nc3ccc(S(=O)(=O)Nc4cc(C)on4)cc3)n2)cc1 | inconclusive: 20 µM [quencher, partial curve]
Cc1ccc(Cl)cc1Nc1nc(-c2sc(NC(=O)C(C)(C)C)nc2C)cs1 | inconclusive: 25.1 µM [quencher, side channel, single point]
O=C(NC1CCCC1)c1cc(-c2ccccc2O)on1 | inconclusive: 39.8 µM [inhibitor, single point]
COc1ccc2[nH]cc(CCn3ccc(O)c(C/C=C/c4ccccc4)c3=O)c2c1 | inconclusive: 28.2 µM [quencher, side channel, partial curve]
Cc1[nH]c2ccccc2c1/C=C/c1nc2ccccc2c(=O)n1-c1cccc([N+](=O)[O-])c1 | inconclusive: 12.6 µM [quencher, side channel, partial curve]
Cc1ccc(S(=O)(=O)N2CCN(c3nc(C)c4c(c3C#N)CC(C)(C)OC4)CC2)cc1 | inactive
C=C(C)C(=O)OCCO | inactive
COC(=O)c1ccc(/C=C/c2c(-c3ccc(OC)cc3)oc3ccccc23)cc1 | inconclusive: 3.98 µM [quencher, side channel, full curve]
CCOc1ccc(NS(=O)(=O)c2cc(OCC(N)=O)c(C)cc2Cl)cc1 | inconclusive: 1.58 µM [inhibitor, partial curve]
O=C(NC(=S)Nc1ccc2[nH]c(=O)[nH]c2c1)c1cccc(F)c1 | inconclusive: 39.8 µM [inhibitor, single point]
O=C(Nc1ccc2c(c1)OCO2)c1cc(-c2cccc(O)c2)on1 | inconclusive: 28.2 µM [quencher, side channel, partial curve]
